Source: patent US20160228506A1, “Compositions and Formulations for Prevention and Reduction of Tumorigenesis, Cancer Cell Proliferation and Invasion, and Methods of Production and Use Thereof in Cancer Treatment” (PRONUTRIA, INC., priority 2013, published 2016)

Legend:
[1] = SGF digest of 168 nutritive polypeptide library, intact protein by LC-MS/MS; format: in vitro ADME; details: 168 nutritive polypeptide library SGF digest, LC-MS/MS spectral counts
Procedure: The in vitro intact half-life of multiple polypeptides in a complex mixture was determined using the simulated gastric in vitro digestion described above. Briefly, the 168 nutritive polypeptide library was generated as described herein by cloning, transforming, and expressing a gene library encoding 168 proteins as a single mixture. The recombinantly expressed proteins were purified from host cell proteins by IMAC purification as described herein.
The 168 Protein Library was treated with SGF as described above and the t=0 and t=10 min samples were analyzed for intact protein by LC-MS/MS. To begin, 10 μg of sample was loaded onto a 10% SDS-PAGE gel (Invitrogen) and run approximately 5 cm into the gel. The gel was excised into ten fractions from 100 kD to the dye front and the gel slices were processed by washing with 25 mM ammonium bicarbonate, followed by acetonitrile. Gel fractions were then reduced with 10 mM dithiothreitol at 60° C., followed by alkylation with 50 mM iodoacetamide at room temperature. Finally, the samples were digested with trypsin (Promega) at 37° C. for 4 h and the digestions were quenched with the addition of formic acid. The samples were then analyzed by nano LC/MS/MS using an EasynLC 1000 HPLC system interfaced to a ThermoFisher Q Exactive. Peptides were loaded on a trapping column and eluted over a 75 μm analytical column at 350 nL/min; both columns were packed with PepMap C18 3 μm resin (ThemoFisher). A 1 hour gradient was employed. The mass spectrometer was operated in data-dependent mode, with MS and MS/MS performed in the Orbitrap at 70,000 FWHM resolution and 17,500 FWHM resolution, respectively. The fifteen most abundant ions were selected for MS/MS. Data were searched against an appropriate database using Mascot to identify peptides. Mascot DAT files were parsed into the Scaffold software for validation, filtering and to create a nonredundant list per sample. Data were filtered at 1% protein and peptide false discovery rate (FDR) and requiring at least two unique peptides per protein. A full list of detected proteins and their spectral counts (SpC) was generated and reported as a function of each collected gel fraction. SpC are a count of the number of spectra identified for a given protein and are used as a measure of relative protein abundance (Liu, H. et al., Analytical Chemistry 2004, 76: 4193-4201). To calculate the percentage of intact protein remaining at the 10 min time point of the SGF digest the number of SpC representative of intact peptide in the t=10 min sample were divided by the number of SpC representative of intact peptide in the t=0 min sample. […]

[2] = Thermostability, temperature of aggregation (ProteoStat Thermal Shift); format: physicochemical; parameters: key: temperature in °C
Procedure: The thermostability of proteins in a buffer cocktail of Citric Acid and Dibasic Sodium Phosphate over a pH range of 2.8 to 7.1 (preparation described above in Table E31B) was determined using the ProteoStat® Thermal Shift Stability Kit (Enzo Life Sciences) according to the manufacturer's standard protocol. Briefly, protein solutions (˜10 mg/ml) containing 1× ProteoStat TS Detection Reagent were heated from 25° C. to 95° C. at a rate of 0.5° C. per 30 sec using a real-time PCR (rtPCR) thermocycler (BioRad) equipped with a plate reader (SynergyMx, Biotek) while monitoring the fluorescence with a Texas Red filter.

Pancreatin = format: in vitro ADME, Porcine
Procedure: Control samples were protease-free.
Analyses were performed using an Agilent 1100 series system.

| Molecule | % Intact Protein at 10 min [1] [%] | Tagg ([2]; pH 3.7) | Tagg ([2]; pH 3.9) | Free Leu (μM) at 120 min time point of Pancreatin digest (Pancreatin) [µM] |
| --- | --- | --- | --- | --- |
| SEQID-00631: protein of the 168 nutritive polypeptide library (protein, listed as Lactobacillus acidophilus, source: /note="strain 30SC", protein of the 168 nutritive polypeptide library) MARIAGVDLPRDKRIVVALTYIYGIGDTTAKKICADAGVSEDVRSKDLTPEDQEKLRAEVDKYRVEGDLRREVSMNIKRLVDIGSYRGIRHRRGLPVRGQNTKNNARTRKGTKRNR | 17.1 | – | – | – |
| SEQID-00639: protein of the 168 nutritive polypeptide library (protein, listed as Saccharomyces cerevisiae, source: /note="strain ATCC 204508 / S288c", protein of the 168 nutritive polypeptide library) MAKRTKKVGITGKYGVRYGSSLRRQVKKLEIQQHARYDCSFCGKKTVKRGAAGIWTCSCCKKTVAGGAYTVSTAAAATVRSTIRRLREMVEA | 0 | – | – | – |
| SEQID-00583: protein of the 168 nutritive polypeptide library (protein, Zea mays, protein of the 168 nutritive polypeptide library) MAPPQPKSGLFVGINKGHVVTKRELPLRPSHRKGKATKRVSMVRGLIREVAGFAPYEKRITELLKVGKDKRALKLAKRKLGTHKRAKKKREEMMGVLRKMRSAGTHTDKKK | 0 | – | – | – |
| SEQID-00582: protein of the 168 nutritive polypeptide library (protein, listed as Agaricus bisporus, source: /note="var. bisporus"; source: /note="strain H97 / ATCC MYA-4626 / FGSC 10389", protein of the 168 nutritive polypeptide library) MQPKAAASKTPAVKHKFVIDYSKPAADGVFDGADFEKFLHDRIKVEGKAGQLGDHVKITRDGNTKITVTSNIPFSKRYLKYLTKKFLKKNTLRDWIRVVASSKDNYQLRFYNIA | 15.2 | – | – | – |
| SEQID-00103: nutritive polypeptide naturally produced in Rice, recombinantly expressed in E. coli (protein, listed as Oryza sativa) MEGLTSEQMVAFQEAFLLFDKNGDGCITLEELAAVTRSLGLEPTDQELNDMMREVDTDGNGIIDFQEFLSLIARKMKDGDGDEELKEAFEVLDKDQNGFISPTELRTVMTNLGEKMTDEEVEQMIREADTDGDGQVNYDEFVIMMKNAERKISG | – | 45.5 | 41.5 | 793.8 |
